The values below come from ChEMBL document CHEMBL4888484, “Replenishing the malaria drug discovery pipeline: Screening and hit evaluation of the MMV Hit Generation Library 1 (HGL1) against asexual blood stage Plasmodium falciparum ,using a nano luciferase reporter read-out” (2022).

The whole screen tested about 150,000 compounds, of which about 540 (0.36%) showed an effect of 50% or more. The list shows a part of the results.

As usually defined, the % Inhibition is the change of the read-out against control, counted positive when it falls.

The test system of the assay is Plasmodium falciparum. Description: Primary screen in NF54 nanoGlo assay, in single point, at 2uM, 72h; a lower Z score goes with more inhibition. Format: functional, Erythrocyte. The following applies: timepoint 72 hour.
Take `CN1CC2(CCN(C(=O)NC3CCCC3)CC2)C[C@@H](c2ccccc2)C1=O`: the “% Inhibition” value came to 16% and the Z score is listed as -2.04.

Consider `O=C(NCC1(c2ccccc2)CC1)c1ccc2c(c1)OCO2`, for which the “% Inhibition” value is -6% and the Z score stood at 0.79.

For `c1ccc2c(c1)CCC[C@H]2c1noc(-c2nccc3ccccc23)n1`, the “% Inhibition” value is given as -2% and the Z score turned out to be 0.28.

On to `O=C1C[C@H](NS(=O)(=O)c2c(F)cccc2F)CN1C1CC1`, for which the “% Inhibition” value was -13% and the Z score is recorded as 2.05.

Take `Cc1ccc(Cl)cc1-n1ncc2c(N3CCCCCC3)ncnc21`: the “% Inhibition” value is reported as 4% and the Z score was -0.53.

For the compound `C[C@@H](C(=O)N1CCc2ccccc21)N1C(=O)CCC1=O`, the “% Inhibition” value worked out at 9% and the Z score is listed as -1.01.

For `COc1ccc([C@@H]2CC(=O)Nc3ccc4nn(-c5ccccc5)nc4c32)cc1O`, the “% Inhibition” value is -5% and the Z score was found to be 0.61.

As to `Cc1cc(N)n(CC(=O)N(C)Cc2c[nH]nc2C)n1`, the “% Inhibition” value was -18% and the Z score is given as 3.38.

Consider `Cc1nc(-c2cc3ccccc3nc2N2CCN(C(=O)Cc3ccccc3)CC2)no1`, for which the “% Inhibition” value is recorded as -10% and the Z score is on record as 1.81.

Turning to `CC(C)(C)c1noc(CN2C[C@@H](O)[C@@H](O)C2)n1`, the “% Inhibition” value is listed as -7% and the Z score came to 0.91.

With `O=c1ccccn1Cc1cc(Cl)c2c(c1)OCO2`, the “% Inhibition” value is reported as 1% and the Z score was -0.22.

For the compound `Cc1ccc(NC(=O)Cn2ncn3c(C)c(C(=O)NCc4ccc(F)cc4)c(C)c3c2=O)cc1F`, the “% Inhibition” value is recorded as -6% and the Z score is 0.91.

Take `Cc1cn2ccc(C(=O)N[C@H]3CCS(=O)(=O)C4(CCC4)C3)cc2n1`: the “% Inhibition” value is listed as -1% and the Z score came to 0.22.

`COc1cccc(-c2cn(CC(=O)Nc3cccc(C)c3C)nc2N2CCOCC2)c1`: the “% Inhibition” value is listed as -5% and the Z score is 0.6.

For `Cc1nc(-c2ccccn2)n(Cc2ccc(C(N)=O)cc2)n1`, the “% Inhibition” value is reported as -6% and the Z score turned out to be 0.49.

For `CCCc1cnc(C)nc1N1CCC(NC2CCOCC2)CC1`, the “% Inhibition” value was found to be 1% and the Z score is listed as -0.19.

Consider `CC(=O)N1C[C@H](O)C[C@@H]1c1nc(-c2ccc(F)cc2)no1`, for which the “% Inhibition” value is on record as -9% and the Z score was determined as 1.89.

As to `COc1ccc(NC(=O)N[C@H](CO)C(C)(C)C)cc1C`, the “% Inhibition” value is -10% and the Z score came out at 1.51.

Regarding `CN1CCN(C(=O)N2CCCn3nc(-c4nc5ccccc5[nH]4)cc3C2)CC1`, the “% Inhibition” value was 0% and the Z score is given as 0.

With `COC(=O)[C@@H]1C[C@@H](N(C)C)CN1S(=O)(=O)c1ccccc1OC`, the “% Inhibition” value is -7% and the Z score worked out at 1.36.

Take `O=C(Cc1cccc(F)c1)Nc1ccc2c(c1)NCCC2`: the “% Inhibition” value stood at 1% and the Z score was -0.09.

As to `CCn1ccc(C(=O)N2CC[C@H](n3c(=O)[nH]c4cncnc43)C2)n1`, the “% Inhibition” value was -19% and the Z score worked out at 3.06.

Regarding `Cc1ncsc1CCC(=O)N1C[C@H](C(=O)O)[C@@H](c2ccc(F)cc2)C1`, the “% Inhibition” value is recorded as 2% and the Z score was -0.31.

As to `COc1cc(C2C(C(=O)N3CCCC3)CCC(=O)N2c2ccc3c(c2)OCO3)cc(OC)c1OC` (centres undefined), the “% Inhibition” value is reported as -10% and the Z score turned out to be 1.55.

As for `FC(F)(F)Cc1noc(CN2CCC[C@H]2COc2ccccc2)n1`, the “% Inhibition” value is -2% and the Z score is 0.29.

With `COc1ccc(CNc2cc(C(=O)NC3CCCC3)cc(S(=O)(=O)Nc3ccccc3)c2)cc1OC`, the “% Inhibition” value is given as -10% and the Z score came to 1.31.

As for `C1=C(CN2CCC[C@H](N3CCCC3)CC2)COc2ccccc21`, the “% Inhibition” value was found to be 13% and the Z score is listed as -1.66.

On to `CCCN(Cc1ccccn1)C(=O)NC[C@H]1CCN(Cc2ccccc2C)C1`, for which the “% Inhibition” value was determined as 7% and the Z score is listed as -1.39.

As for `C[C@H]1CNc2cc(S(N)(=O)=O)ccc21`, the “% Inhibition” value came to 11% and the Z score is -1.28.

Consider `CCCc1cc(C(=O)N(C)[C@@H](C)c2cncs2)[nH]n1`, for which the “% Inhibition” value is listed as -14% and the Z score is on record as 2.05.

With `CCc1ccc(-c2cc(C(=O)N[C@@H](C)c3n[nH]c(N)n3)[nH]n2)cc1`, the “% Inhibition” value is -12% and the Z score was 1.63.

Turning to `CCCN(CC1CC1)[C@H]1CCC(=O)N(Cc2ccc(C(=O)OC)cc2)CC1`, the “% Inhibition” value was -13% and the Z score turned out to be 1.89.

On to `O=C(N[C@H]1C[C@H]2CC[C@@H]1C2)c1cc(COc2cccc3cccnc23)on1`, for which the “% Inhibition” value is given as 1% and the Z score was -0.17.

Take `O=C(CCc1nnc(C(=O)Nc2cccc(Cl)c2)s1)NCCN1CCCC1`: the “% Inhibition” value was -8% and the Z score worked out at 1.59.

With `COC(=O)C1CCN(C(=O)c2cc(Cl)c3c(c2)OCCCO3)CC1`, the “% Inhibition” value is given as -9% and the Z score is given as 1.4.

On to `CN1CCN(c2nc3c(c(Oc4ccc(F)c(F)c4)n2)CN(S(=O)(=O)c2ccccc2)CC3)CC1`, for which the “% Inhibition” value was found to be 8% and the Z score was -1.15.

On to `COc1cc(NC(C)=O)cc(OC)c1OC`, for which the “% Inhibition” value is recorded as -2% and the Z score is listed as 0.39.

`Cc1nc(N)sc1-c1ccn(C[C@H]2COc3ccccc3O2)n1`: the “% Inhibition” value is reported as -18% and the Z score came to 2.03.

On to `Cc1noc(C2CCN(C(=O)[C@@](C)(O)CCc3ccccc3)CC2)n1`, for which the “% Inhibition” value is given as -1% and the Z score turned out to be 0.09.

`CCOC(=O)[C@H](Cc1ccc(OC(=O)CNC(=O)OCc2ccccc2)cc1)NC(=O)OCc1ccccc1`: the “% Inhibition” value was 26% and the Z score is listed as -3.49.

As for `CC(C)(C)OC(=O)[C@]1(C)CCCN1CCN1C(=O)CNC1=O`, the “% Inhibition” value is reported as -2% and the Z score was 0.22.

As to `O=C(COc1ccc2c(c1)OCO2)N[C@H]1CCOC2(CCOCC2)C1`, the “% Inhibition” value is -10% and the Z score is 1.89.

`O=C(C1CCC1)N1CCOc2ccc(CN3CCc4ccccc4C3)cc2C1`: the “% Inhibition” value is reported as -16% and the Z score is listed as 1.74.

Consider `CCS(=O)(=O)C1CN(C(=O)[C@H](C)n2ccc3ccccc3c2=O)C1`, for which the “% Inhibition” value is given as -4% and the Z score is 0.45.

On to `Cc1ccc(N2CCCN(Cc3ccc(OC(F)(F)F)cc3)C2=O)c(NC(=O)Nc2ccccc2)c1`, for which the “% Inhibition” value is recorded as -5% and the Z score is given as 0.76.

With `CN(CC(=O)N1CCOCC1)c1ncncc1-c1nc(-c2ccsc2)no1`, the “% Inhibition” value is listed as -7% and the Z score is reported as 1.3.

On to `CNC(=O)c1noc(Cn2ncc(N(C)Cc3ccccc3)cc2=O)n1`, for which the “% Inhibition” value is reported as 0% and the Z score is recorded as -0.02.

On to `O=C(C[C@@H]1CCN2C[C@@H]1/C=C/COc1ccc(N3CCNCC3)cc1CNCC2=O)NC1CCCCC1`, for which the “% Inhibition” value is reported as 28% and the Z score is -3.19.

For `CC(CC(O)c1ccccc1)NC(=O)CCC(F)(F)F` (centres undefined), the “% Inhibition” value was -4% and the Z score stood at 0.53.

As for `CCNC(=O)N[C@@H](C)c1cnc(N2CCCCCCC2)nc1C`, the “% Inhibition” value was 0% and the Z score is given as 0.02.

For the compound `CN(C)S(=O)(=O)N[C@@H](c1ccccc1)c1ccc2c(c1)CCCO2`, the “% Inhibition” value is given as -2% and the Z score amounted to 0.3.

As to `CN1CCN(C(=O)C2CN(C(=O)c3cccc(Cl)c3)CC2c2cccc(C(F)(F)F)c2)CC1` (centres undefined), the “% Inhibition” value was -12% and the Z score amounted to 1.37.
